Source: PubChem BioAssay AID686970 (National Center for Advancing Translational Sciences (NCATS), 2013)
The campaign covered roughly 360,000 compounds. About 6,000 (1.7%) were called active. Inconclusive results, whose numbers are uncertain, are shown with a selection of clear calls. Calls come from the whole dose curve; as a rule, active = well fitted cell-killing curve with a large enough effect; inconclusive = small, poorly fitted or top-dose-only effect, or effect the other way; inactive = flat fitted curve, though single readings scatter. No potency is given beside an inconclusive call; the fits are too rough.
Potency is the fitted concentration of half-maximal effect; tags give direction and shape of the fitted curve.

Test: qHTS for induction of synthetic lethality in tumor cells producing 2HG: qHTS for the HT-1080-NT fibrosarcoma cell line;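 note: NT is the 2HG producing partner of a matched IDH1 knockdown line; nearly all actives have a fitted effect of over 55% in size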;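 for activity, negative = less viability: 0% = DMSO-treated cells and -100% = media-only wells without cells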
Conditions: HT-1080-NT fibrosarcoma viability, CellTiter-Glo ATP luminescence, 48 h; activity, negative = less viability: at 46.1 µM (top of the series) unless noted
Summary of the method: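 Luminescent CellTiter-Glo readout after 48 hours of compound exposure at 37 degrees C defined viability of HT-1080-NT cells. Activity was normalized to DMSO wells and cell-free media wells; concentration-response curves were fitted and assigned curve classes.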
With COc1cc(OC)nc(Nc2nc(C(N)Cc3ccc(F)cc3)cs2)n1 (centres undefined) the Potency was inconclusive [cytotoxic, single point]. For CS(=O)(=O)c1ncc(Cl)c(C(=O)Nc2ccc(N3CCOCC3)cc2)n1, the Potency was active: 3.55 µM. With CCCCn1c(=O)[nH]c(=O)c2c1nc(-c1ccsc1)n2Cc1ccccc1 the Potency was inconclusive [cytotoxic, single point]. In the case of COCCn1c(-c2ccc(C)cc2)nc2c(c(=O)c3ccccc3n2C)c1=O, the Potency is reported as inconclusive [rising, partial curve]. For CCc1nc2ccc(C(=O)NCCN3CCCC3)cn2c1N(C)Cc1ccc(OC)cc1, the Potency was inconclusive [cytotoxic, single point]. In the case of COc1ccccc1CNC(=O)COC(=O)[C@H](Cc1c[nH]c2ccccc12)NC(=O)c1cccs1, the Potency is reported as inconclusive [cytotoxic, single point]. With COc1ccc(NS(=O)(=O)c2cc(OC)ccc2NC(=O)c2cc(C)oc2C)cc1 the Potency was active: 5.8 µM. With COCCN(C(=O)c1ccco1)c1nc(-c2ccccc2)cs1 the “activity, negative = less viability” value was inactive: 1.44%. For CC(C)(C)c1ccc(CC(=O)N2CCC2(C)C(=O)NS(=O)(=O)c2ccccc2Cl)cc1 (centres undefined), the activity, negative = less viability was inconclusive: 17%. With Oc1ccc(Br)cc1/C=N/NC(=S)NCCc1ccccc1 the Potency was inconclusive [cytotoxic, single point]. In the case of Fc1cccc(CNc2ncnc3cc(Cl)ccc23)c1F, the “activity, negative = less viability” value is reported as inactive: -16.2%. With COc1ccc(NC(=O)C2Cc3c(-c4cccc(C(C)=O)c4)ccnc3O2)cc1 (centres undefined) the Potency was inconclusive [cytotoxic, full curve]. With CCCC[C@@H]1Cc2[nH][nH]c(=O)c2[C@H](c2cccc3ccccc23)O1 the Potency was inconclusive [cytotoxic, single point]. In the case of COc1ccc(S(=O)(=O)Cc2ccc(C(=O)N3CCN(c4cccc(C)c4)C(C)C3)o2)cc1 (centres undefined), the Potency is reported as active: 2.59 µM. With CC(=O)c1ccc(NC(=O)c2sc3nc(N4CCOCC4)c4c(c3c2N)CCCC4)cc1 the “activity, negative = less viability” value was inactive: -0.366%. With Cc1cccc(NCC(=O)N/N=C\c2c[nH]c3ccccc23)c1 the Potency was inconclusive [cytotoxic, partial curve]. In the case of CCOC(=O)C1CCN(C(=O)c2cc(S(=O)(=O)N3CCc4ccccc43)ccc2OC)CC1, the “activity, negative = less viability” value is reported as inactive: 3.19%. For Cc1ccccc1OCCC(=O)Nc1ccc(S(=O)(=O)N2CCCC2)cc1, the “activity, negative = less viability” value was inactive: -14.9%. For CN(C)CCCN(C(=O)c1ccc(Br)s1)c1nc2cc3c(cc2s1)OCO3, the Potency was inconclusive [cytotoxic, single point]. With CC(=O)c1ccc(N2CCN(S(=O)(=O)c3ccc4c(c3)CC(C)N4C(C)=O)CC2)cc1 (centres undefined) the Potency was inconclusive [cytotoxic, full curve]. In the case of CC[C@]1(C(=O)OC)[C@H]2C(=O)N(C)C(=O)[C@H]2[C@H]2CN=C(SCc3ccc(OC)cc3)N21, the activity, negative = less viability is reported as inconclusive: -23.9% [cytotoxic]. With CCOc1cc2c(cc1O)C(=NOC)CC1C2CCC2(C)C(O)CCC12 (centres undefined) the Potency was active: 1.64 µM. With N#CCn1cc(/C=N/NC(=O)c2cc3c(ccc4ccccc43)o2)c2ccccc21 the Potency was inconclusive [cytotoxic, single point]. In the case of CCC(c1nnnn1Cc1ccccc1)N(Cc1ccco1)Cc1cc2cc(OC)ccc2[nH]c1=O (centres undefined), the Potency is reported as inconclusive [cytotoxic, single point]. In the case of Cc1c(Cl)cccc1NC(=O)CNC(=O)c1ccccc1F, the Potency is reported as inconclusive [rising, full curve]. With Cc1ccc(-c2nc3ccccc3o2)cc1NC(=S)NC(=O)/C=C/c1ccco1 the Potency was inconclusive [cytotoxic, partial curve]. In the case of Cc1ccccc1-c1nc(-c2ccc(NC(=O)c3ccc4c(c3)OCO4)cc2)no1, the Potency is reported as inconclusive [cytotoxic, single point]. With Cn1c(=O)c(C(=O)Nc2ncccc2O)c(O)c2ccccc21 the Potency was inconclusive [cytotoxic, single point]. In the case of O=C(CCS(=O)(=O)c1ccc(F)cc1)N1CCOCC1, the “activity, negative = less viability” value is reported as inactive: -1.73%. For O=C(CSc1ccc(Cl)cc1)Nc1nnc(-c2ccco2)o1, the “activity, negative = less viability” value was inactive: 2.22%. In the case of S=C(Nc1cccc(Cl)c1Cl)N1CCCC1, the “activity, negative = less viability” value is reported as inactive: 11.8%. For CCCOC(=O)Nc1sc2c(c1C(N)=O)CCCC2, the Potency was inconclusive [cytotoxic, single point]. For CCCCCc1c2c(cc(O)c1C(=O)O)OC(=O)c1c(cc(OC)cc1C(=O)CCCC)O2, the Potency was inconclusive [cytotoxic, single point]. In the case of CC(Nc1nc(-c2ccc(F)cc2)cs1)c1nc2cc(Cl)c(N3CCCCC3)cc2n1CCOCCO (centres undefined), the Potency is reported as inconclusive [cytotoxic, single point]. In the case of COCCN1C[C@@H](CO)O[C@@H](n2cnc3c(NCc4ccc(F)cc4)ncnc32)C1, the Potency is reported as inconclusive [rising, partial curve]. In the case of CCN(C(=O)CSc1n[nH]c(-c2ccccc2)n1)c1c(N)n(Cc2ccccc2)c(=O)[nH]c1=O, the Potency is reported as inconclusive [cytotoxic, single point]. In the case of CCc1ccc(OCC(=O)Nc2ccc3c(c2)COC3=O)cc1, the Potency is reported as inconclusive [rising, partial curve]. For Cc1ccc(CNC(=O)C2(NC(=O)Nc3ccc(C)cc3)CCCCC2)cc1, the Potency was inconclusive [cytotoxic, single point]. For O=C(O)c1ccc(N=Cc2c(O)ccc3ccccc23)cc1, the Potency was inconclusive [cytotoxic, partial curve]. For CC(=O)OC(c1nc2ccccc2c(=O)n1C1CC2(OC1=O)c1ccccc1N1C(=O)C(C)(C)N(O)C12)C(C)C (centres undefined), the “activity, negative = less viability” value was inactive: -4.15%. For CC(Oc1ccc(Br)cc1Cl)C(=O)Nc1ccncc1 (centres undefined), the Potency was inconclusive [cytotoxic, partial curve]. For COc1ccc(C2=Nn3c(nnc3-c3ccccc3OC)SC2)cc1OC, the Potency was active: 0.461 µM. In the case of Cc1cnc(C(=O)OCc2csc(CC(=O)Nc3ccccc3C)n2)cn1, the “activity, negative = less viability” value is reported as inactive: -0.962%. For Cc1cccc(NC(=O)c2cc(-c3cc(C)cc(C)c3O)n[nH]2)c1, the Potency was inconclusive [cytotoxic, single point].
